The whole screen tested about 370,000 compounds, of which about 150 (0.041%) were called active. Inconclusive means that the source gave no clear call. Such entries were picked first, then a sample of the others. The call rests on the fitted dose curve; in most records, active means well fitted inhibition curve with a large enough effect; inconclusive means small, poorly fitted or top-dose-only effect; inactive means flat fitted curve, though single readings scatter. Potencies of inconclusive entries are left out as doubtful fits.
What follows are molecules tested against Beta-lactamase (Escherichia coli (strain K12)) (UniProt P00811) (assay: qHTS Inhibitors of AmpC Beta-Lactamase (assay with detergent)). Conditions: AmpC hydrolysis of nitrocefin, absorbance 480 nm, 0.01% Triton; series mostly up to 114 µM.
UniProt P00811, sequence (P00811 whole entry, looked up): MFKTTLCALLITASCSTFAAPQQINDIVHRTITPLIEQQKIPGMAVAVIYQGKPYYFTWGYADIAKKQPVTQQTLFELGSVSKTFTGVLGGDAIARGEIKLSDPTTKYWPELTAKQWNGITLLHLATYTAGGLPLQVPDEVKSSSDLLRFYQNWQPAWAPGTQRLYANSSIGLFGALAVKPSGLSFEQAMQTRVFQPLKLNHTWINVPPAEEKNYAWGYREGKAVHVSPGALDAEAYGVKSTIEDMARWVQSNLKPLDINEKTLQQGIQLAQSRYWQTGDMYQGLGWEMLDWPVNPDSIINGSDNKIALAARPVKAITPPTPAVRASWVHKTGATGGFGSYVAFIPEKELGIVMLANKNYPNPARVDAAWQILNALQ
Procedure, shortened: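 AmpC (5.3 nM in the dispensed reagent) in 20 mM phosphate pH 7.0 with 0.01% (detergent screen) or 0.0001% Triton X-100 was preincubated with compounds for 15 min at room temperature. Nitrocefin was then added from an 800 uM solution, and hydrolysis was followed at 480 nm.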
With `CC(C)CC(=O)NCC(c1ccc2c(c1)OCO2)N1CCN(c2ccccc2F)CC1` (stereo not drawn) the Potency was “inactive”. With `COc1ccc(-c2nc(CS(=O)CC(=O)NC3CCCc4ccccc43)c(C)o2)cc1OC` (stereo not drawn) the Potency was “inactive”. For `Cn1c(C(=O)NCCCN2CCCC2=O)cc2c(=O)n(C)c3ccccc3c21`, the Potency was inconclusive [inhibitor, full curve, poor fit]. `CCOc1ncccc1C(=O)N(C)CC(=O)Nc1ccc(C)cc1` was tested, and the Potency was “inactive”. With `Cc1ccccc1NC(=O)N1CCCC(c2nc(-c3ccc(F)cc3)no2)C1` (stereo not drawn) the Potency was inconclusive [inhibitor, full curve, poor fit]. `COC(=O)[C@H]1C[C@@H]1[C@H](NP(=O)(c1ccccc1)c1ccccc1)c1ccccc1` was tested, and the Potency was inconclusive [inhibitor, full curve]. With `CC(CN1CCCCC1)OC(=O)c1ccccc1F` (stereo not drawn) the Potency was inconclusive [inhibitor, full curve, poor fit]. In the case of `CC(C)COC(=O)C(C#N)c1nc2ccccc2nc1N1CCN(Cc2ccc3c(c2)OCO3)CC1` (stereo not drawn), the Potency is reported as inconclusive [inhibitor, single point]. For `COc1ccc(S(=O)(=O)NNC(N)=S)cc1`, the Potency was inconclusive [inhibitor, partial curve]. With `CCN1CCN(c2ccc(NC(=O)c3ccc(Br)o3)cc2)CC1` the Potency was “inactive”. `COc1ccc(OC)c(NC(=O)Cn2nc(C)c3ccccc3c2=O)c1` was tested, and the Potency was inconclusive [inhibitor, full curve, poor fit]. `CCN1CCOC(=O)C1CC(=O)Nc1cccc(OC)c1` (stereo not drawn) was tested, and the Potency was “inactive”. In the case of `CN=C(NC)SC1CC(=O)N(c2ccccc2)C1=O` (stereo not drawn), the Potency is reported as inconclusive [inhibitor, full curve, poor fit]. `N#Cc1c2c(c(Nc3ccc(O)cc3)n3c1nc1ccccc13)CCC2` was tested, and the Potency was inconclusive [inhibitor, partial curve, poor fit]. For `C/C=C/C=N/Nc1nc(-c2ccc([N+](=O)[O-])cc2)cs1`, the Potency was “inactive”. `O=[N+]([O-])c1ccc(N=Nc2c(O)[nH]c3ccc(F)cc23)cc1` was tested, and the Potency was “inactive”. In the case of `Cc1cc(C)c(NC(=O)Cn2c(=O)n(CCc3ccccc3)c(=O)c3ccccc32)c(C)c1`, the Potency is reported as “inactive”. With `CC1CC(C)CN(CCCNC(=O)CCNC(=O)Cn2cnc3ccccc3c2=O)C1` (stereo not drawn) the Potency was “inactive”. In the case of `O=C1CCCCCN1Sc1ccccc1`, the Potency is reported as inconclusive [inhibitor, full curve, poor fit]. In the case of `Clc1ccc(COC(Cn2ccnc2)c2ccc(Cl)cc2Cl)c(Cl)c1` (stereo not drawn), the Potency is reported as “inactive”. In the case of `O=C(COC(=O)Cc1ccc(F)cc1)NCc1ccco1`, the Potency is reported as inconclusive [inhibitor, single point]. For `CC(NC(=O)c1cc(F)c(F)c(F)c1F)c1ccc(-n2ccnc2)cc1` (stereo not drawn), the Potency was inconclusive [inhibitor, single point]. For `COc1cccc(-c2ccc3nnc(SCC(=O)N4CCCC4)n3n2)c1`, the Potency was inconclusive [inhibitor, full curve, poor fit]. In the case of `Cc1ccccc1NC1=C/C(=N\S(=O)(=O)c2ccc(C(=O)O)cc2)c2ccccc2C1=O`, the Potency is reported as inconclusive [inhibitor, partial curve, poor fit]. With `CN1CCN(CCCCC(=O)c2ccccc2)CC1` the Potency was inconclusive [inhibitor, single point]. `CCN(CC)S(=O)(=O)c1ccc(S(=O)(=O)N2CCCC(C(=O)NC3CC3)C2)cc1` (stereo not drawn) was tested, and the Potency was inconclusive [inhibitor, full curve, poor fit]. With `NCCc1nnc(SCC(=O)c2ccc(Cl)cc2)o1` the Potency was “inactive”. `COCC(C)NC(=O)C(C)Oc1ccccc1` (stereo not drawn) was tested, and the Potency was inconclusive [inhibitor, full curve]. For `O=C(CN1C(=O)C(=O)N(C2CCCC2)C1=O)Nc1ccc([N+](=O)[O-])cc1`, the Potency was inconclusive [inhibitor, full curve, poor fit]. With `COCCCNC(=O)c1cccc(NC(=O)c2ccccc2)c1` the Potency was inconclusive [inhibitor, partial curve, poor fit]. For `CO/C([O-])=N/c1c[n+](-c2ccc(Cl)cc2)no1`, the Potency was inconclusive [inhibitor, single point]. For `O=C(COc1ccc2c(-c3ccccc3)cc(=O)oc2c1)NCc1ccccn1`, the Potency was inconclusive [inhibitor, partial curve, poor fit]. In the case of `COc1ccc(C(=O)NCC(c2cccs2)S(=O)(=O)c2ccc(F)c(C)c2)cc1` (stereo not drawn), the Potency is reported as “inactive”. With `COc1ccc(NS(=O)(=O)c2cccc(C(=O)NNC(=O)c3cc(C)oc3C)c2)cc1` the Potency was inconclusive [inhibitor, full curve]. In the case of `COC(=O)c1ccc(NS(=O)(=O)c2cc3c4c(c2)C(C)C(=O)N4CCC3)cc1` (stereo not drawn), the Potency is reported as inconclusive [inhibitor, full curve, poor fit]. With `Cc1nn(C)c(C)c1/C=C1/CC2C3CC=C4CC(O)CCC4(C)C3CCC2(C)C1=O` (stereo not drawn) the Potency was “inactive”. With `CCN(CC)c1ccc(CN2CC=C(c3ccc(F)cc3)CC2)cc1` the Potency was inconclusive [inhibitor, full curve, poor fit]. With `CCOc1ccc(CCNC(=O)c2cccc(NC3=NC4CS(=O)(=O)CC4S3)c2)cc1OCC` (stereo not drawn) the Potency was inconclusive [inhibitor, full curve]. In the case of `O=C1c2oc3ccc(F)cc3c(=O)c2C(c2ccncc2)N1CCN1CCOCC1` (stereo not drawn), the Potency is reported as inconclusive [inhibitor, single point]. For `Cn1ncc(C#N)c1NC(=O)c1nn2cccnc2c1Cl`, the Potency was inconclusive [inhibitor, full curve, poor fit]. `Cc1cccc(C2=N/C(=C\c3cccs3)C(=O)O2)c1` was tested, and the Potency was inconclusive [inhibitor, partial curve, poor fit]. In the case of `O=C(Nc1ccccc1NC(=O)NC1CCCCC1)NC1CCCCC1`, the Potency is reported as “inactive”. For `COc1ccc(OC)c(S(=O)(=O)n2ccnc2C(C)C)c1`, the Potency was inconclusive [inhibitor, full curve]. For `O=S(=O)(NCc1csc(-c2cccnc2)n1)c1ccc2c(c1)OCCO2`, the Potency was inconclusive [inhibitor, full curve, poor fit]. `O=C1C2C3C=CC(C3)C2C(=O)N1c1ccccc1` (stereo not drawn) was tested, and the Potency was “inactive”. For `CC/C(O)=C(\C#N)c1nnc2n1CCCCC2`, the Potency was inconclusive [inhibitor, full curve, poor fit]. With `CC(=O)Nc1nnc(COc2ccc(Cl)cc2)s1` the Potency was “inactive”. In the case of `CC(=NCCc1ccccc1)C1=C(O)CCC1=O`, the Potency is reported as inconclusive [inhibitor, full curve, poor fit]. For `Cc1nn(CC2CC2)c(=O)n1N(C)c1ncc(C(F)(F)F)cc1Cl`, the Potency was inconclusive [inhibitor, full curve, poor fit]. In the case of `CN1CCN(c2nccc3c2ncn3C)CC1`, the Potency is reported as inconclusive [inhibitor, full curve, poor fit]. In the case of `CCOc1ccccc1OCc1nn2c(COc3ccccc3)nnc2s1`, the Potency is reported as inconclusive [inhibitor, single point]. `N/C(=N\c1nc2c(c(=O)[nH]1)CCC2)Nc1ccccc1` was tested, and the Potency was inconclusive [inhibitor, full curve, poor fit]. `Fc1ccc(COc2ccc(-c3nnco3)cc2)cc1` was tested, and the Potency was inconclusive [inhibitor, single point]. For `O=C(NCc1ccccc1Cl)C1CCN(S(=O)(=O)Cc2ccccc2)CC1`, the Potency was “inactive”. `CCOC(=O)NN1C(=O)c2ccccc2NC1c1cccs1` (stereo not drawn) was tested, and the Potency was inconclusive [inhibitor, full curve, poor fit]. `CCOc1cc(-c2cc(-c3ccc(N)cc3)nc(N)c2C#N)ccc1O` was tested, and the Potency was inconclusive [inhibitor, full curve, poor fit]. `CNS(=O)(=O)Cc1ccc2[nH]cc(CCN(C)C)c2c1` was tested, and the Potency was inconclusive [inhibitor, partial curve, poor fit]. In the case of `O=C1NC(=O)C2(Cc3ccccc3N3CCCC32)C(=O)N1c1ccccc1` (stereo not drawn), the Potency is reported as inconclusive [inhibitor, full curve, poor fit]. `COc1ccc(-c2nc(C(N)=O)c3[nH]c(=O)n(-c4cccc(Cl)c4)c3n2)cc1OC` was tested, and the Potency was inconclusive [inhibitor, partial curve]. With `Cc1cnc(C(=O)OCC(=O)N2CCc3ccccc3C2)cn1` the Potency was inconclusive [inhibitor, full curve, poor fit]. With `COc1cccc(-n2c(/C=C/c3ccccc3O)nc3ccccc3c2=O)c1` the Potency was inconclusive [inhibitor, single point]. `CNc1oc(/C=C/c2ccccc2)nc1C#N` was tested, and the Potency was “inactive”. `CC(C)C(c1nnnn1C(C)(C)C)N1CCC(Cc2ccccc2)CC1` (stereo not drawn) was tested, and the Potency was inconclusive [inhibitor, partial curve]. For `Cc1cccc(NC(=O)CSc2nnc(-c3ccco3)c(-c3ccco3)n2)c1`, the Potency was “inactive”. In the case of `COc1ccc(-n2c(-c3ccc(C)cc3)n[nH]c2=S)cc1`, the Potency is reported as inconclusive [inhibitor, full curve, poor fit]. `O=C1c2ccccc2C(O)(c2ccccc2)N1c1ccncc1` (stereo not drawn) was tested, and the Potency was inconclusive [inhibitor, full curve, poor fit]. In the case of `COCCN(CCOC)c1nc(N)c2c(N)nc3c(c2c1C#N)CC(=O)N3Cc1ccc(Cl)cc1`, the Potency is reported as inconclusive [inhibitor, single point]. In the case of `CC(C)(C)N(Cc1cc2ccccc2[nH]c1=O)C(=O)C1CCCCC1`, the Potency is reported as inconclusive [inhibitor, partial curve, poor fit].

From PubChem BioAssay AID485294 (National Center for Advancing Translational Sciences (NCATS), 2010)
Further: nearly all actives have a fitted effect of over 25% in size.
Potency means the concentration at half of the fitted maximal effect; tags describe the fitted curve by direction and shape.
